# Assay results reported in the BET-seq Pho4 binding data (Le et al. 2018).
# This is one part of the list. Values were computed here from the reads of four pooled replicates and scatter widely.
# Biological target: T1, Pho4 (S. cerevisiae) (UniProt P07270)
# T1 sequence: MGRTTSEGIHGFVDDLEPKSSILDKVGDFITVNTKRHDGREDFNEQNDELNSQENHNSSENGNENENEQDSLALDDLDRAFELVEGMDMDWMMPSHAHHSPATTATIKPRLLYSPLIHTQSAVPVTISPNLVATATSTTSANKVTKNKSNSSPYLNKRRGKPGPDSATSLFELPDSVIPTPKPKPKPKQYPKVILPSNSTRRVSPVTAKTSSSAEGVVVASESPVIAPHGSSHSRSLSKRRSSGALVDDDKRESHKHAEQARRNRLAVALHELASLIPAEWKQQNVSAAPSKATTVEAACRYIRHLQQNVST
# Assay: relative binding free energy (BET-seq); higher = weaker binding
# Conditions: reference: library average
row,Sequence,relative binding free energy [kcal/mol]
1,GAGGGCACGTGATTGC,0.05
2,ATATTCACGTGGCGTT,0.25
3,CTGGGCACGTGGTGAG,-0.05
4,GCTTGCACGTGGTAAG,-0.04
5,AAGATCACGTGGGGAG,0.13
6,GTCAGCACGTGTAGGC,0.01
7,GTGTTCACGTGACGTG,0.3
8,ATCGTCACGTGGTCGT,0.05
9,TGGTCCACGTGAGGGG,0.22
10,ATGTACACGTGCGGAG,0.08
11,TCGTTCACGTGATAGT,0.41
12,GTTGTCACGTGGAATT,0.29
13,AGTGTCACGTGACGTG,0.17
14,GGTTTCACGTGTGGTG,0.34
15,GTTAGCACGTGTAATG,-0.12
16,GAGGTCACGTGGTATT,-0.07
17,AGTTGCACGTGTCAGG,0.02
18,ATTTTCACGTGCGTGG,0.11
19,GTCCTCACGTGTTGGG,0.21
20,CTTGTCACGTGGCCGG,0.17
21,AGCGGCACGTGTGAGT,-0.07
22,AGATACACGTGCTTTT,0.2
23,TGAAGCACGTGAGGTG,0.25
24,TTGTGCACGTGGCTGG,-0.12
25,TATATCACGTGGGCTT,0.07
26,CGAGTCACGTGGGTCT,0.13

row,Sequence,relative binding free energy [kcal/mol]
1,TGGAGCACGTGGATGC,-0.1
2,AGTTACACGTGGAGCG,0.35
3,TAGAGCACGTGTGATT,-0.11
4,AATTACACGTGCGCGG,0.18
5,AAGTTCACGTGTTGAG,0.16
6,GGTTTCACGTGGTCGG,0.31
7,GTATACACGTGGGGTC,0.07
8,GTTGGCACGTGGATTT,0.07
9,GTGTTCACGTGACGTA,0.31
10,GGTTGCACGTGACTTT,0.12
11,TTAGACACGTGGGAGA,-0.2
12,TGAAGCACGTGTGTGA,0
13,TTGCTCACGTGGTGTA,0.15
14,CTGGGCACGTGGAGTT,-0.07
15,GAATTCACGTGTTTTT,0.23
16,AAGATCACGTGTTTAA,0.16
17,CGGGTCACGTGTAAGG,0.25
18,ACGGTCACGTGGATAG,0.06
19,TTAGTCACGTGGTTAG,0.1
20,TGGGGCACGTGTATTG,-0.01
21,TGTGTCACGTGCGAGT,0.17
22,CTTGTCACGTGTGGTT,0.17
23,TACTACACGTGGGTTA,-0.07
24,GATATCACGTGCAGTT,0.3
25,ACGTTCACGTGTGGGC,0.26
26,GTAGGCACGTGTCGAT,0.02

row,Sequence,relative binding free energy [kcal/mol]
1,GATTCCACGTGTAGGG,0.13
2,TGGGTCACGTGAGGAG,0.33
3,GATGCCACGTGTTGTT,0.03
4,GAAATCACGTGTATGG,0.19
5,TTAGTCACGTGCGGAG,-0.02
6,AGTATCACGTGATATG,0.13
7,GTATGCACGTGATCGG,0.03
8,TCTGACACGTGTTAGG,0.1
9,GTAAGCACGTGTAGTA,-0.01
10,GGCAGCACGTGGGATG,-0.07
11,CTTTACACGTGAGGAT,0.37
12,TAATACACGTGTGAGT,0.16
13,ATTTTCACGTGAGGCA,0.34
14,GCTAGCACGTGAGGTG,-0.01
15,TTACTCACGTGGGGTG,-0.04
16,TTGGCCACGTGGGTGA,-0.23
17,TAAAACACGTGAAGTG,0.33
18,CCTGACACGTGTGTGT,0.03
19,TGAGGCACGTGGAGGA,-0.12
20,TGATTCACGTGGTAAT,0.26
21,GCGGGCACGTGAGATG,0.17
22,GCTTTCACGTGGGTTT,0.35
23,TTCTTCACGTGGGGCG,0.12
24,GGCAACACGTGGGTGA,-0.14
25,GGATACACGTGTTTAT,-0.11
26,GCATACACGTGGAGGG,0.03

row,Sequence,relative binding free energy [kcal/mol]
1,GTGAGCACGTGAAGGC,0.29
2,TTTGTCACGTGCTTTG,0.09
3,TGCTGCACGTGGGTCA,-0.2
4,CGTTCCACGTGGTGGG,-0.17
5,TTGGTCACGTGTTTAG,0.17
6,TATGTCACGTGACAGG,0.2
7,AGGCACACGTGGTTTT,-0.04
8,ACATGCACGTGGGCGT,-0.1
9,TATGGCACGTGTTCGT,-0.09
10,TTCTTCACGTGTGCTT,0.31
11,ATGATCACGTGTTTCT,0.18
12,CATGGCACGTGGTGGG,-0.15
13,GAGGGCACGTGGGACG,-0.18
14,GCGTACACGTGGTTAT,0.06
15,GTTTTCACGTGACTAG,0.38
16,GTGGTCACGTGAAGGT,0.37
17,ACTTGCACGTGTAGTA,0.05
18,AGTTGCACGTGTTCAA,0.16
19,ATATGCACGTGAGGAT,0.2
20,ATTTTCACGTGGATCG,0.31
21,ATGGTCACGTGGGCCG,-0.08
22,GAATTCACGTGGAATG,0.32
23,TCTATCACGTGGGCTG,0.07
24,CGGCTCACGTGGGGTA,0.06
25,TGAAGCACGTGGAAGA,0.12
26,TGGATCACGTGTTTTG,0.18

row,Sequence,relative binding free energy [kcal/mol]
1,TAGTGCACGTGCAAGG,0.06
2,TCTGGCACGTGAGATT,0.18
3,TTGGCCACGTGATATT,0.15
4,CGAGTCACGTGTAGTT,0.07
5,ACTATCACGTGGTGTA,0.06
6,TAGGGCACGTGTGCGC,-0.23
7,TTTAGCACGTGGATCT,-0.05
8,TTTTACACGTGGTCGA,0.1
9,TAGCTCACGTGCTGTG,0.25
10,CTAAACACGTGTGTGG,-0.01
11,TACATCACGTGTGTGT,0.15
12,GTGTACACGTGAGCGG,0.23
13,TGGTTCACGTGGGCTT,0.19
14,TGTGCCACGTGGAATG,0
15,GCTTACACGTGGTAGG,0.05
16,ATAATCACGTGTTGAT,0.19
17,GTTGGCACGTGCCATG,-0.1
18,TGAAACACGTGGGTCT,-0.17
19,CGGACCACGTGTGGTG,0.02
20,ATAGTCACGTGGTGTG,-0.02
21,GTGGACACGTGAGTTG,0.28
22,TATGGCACGTGCGCTG,-0.11
23,ATGTACACGTGTTTAG,0.03
24,GGAGCCACGTGGGGCG,-0.18
25,TTAAGCACGTGGGCGG,-0.21
26,GAGGTCACGTGTGAAT,0.32

row,Sequence,relative binding free energy [kcal/mol]
1,AGGAACACGTGAGGGT,0.14
2,TCGGTCACGTGGCTGT,-0.01
3,TTGTTCACGTGGCTAG,0.26
4,GGGGCCACGTGGAAGA,0.11
5,AGGGTCACGTGCTCTG,0.03
6,TAGGGCACGTGGTAAA,-0.05
7,TGCTGCACGTGTCAGG,0.02
8,CGCAGCACGTGAGGTG,0.3
9,TTGAGCACGTGTGGTC,0.03
10,GGGTGCACGTGTGTAC,0
11,TGTGGCACGTGGGAGG,-0.18
12,GTACGCACGTGAGTTT,0.15
13,GGTATCACGTGGAGTC,0.14
14,TAAGACACGTGTCGGT,-0.02
15,ATGAACACGTGGTTTG,-0.09
16,ATCGGCACGTGGGATA,-0.2
17,ATGTTCACGTGTGTGC,0.27
18,AAATTCACGTGAGGGT,0.36
19,TGAGGCACGTGTCTGG,-0.04
20,GCGTTCACGTGAGGCG,0.48
21,TAAGGCACGTGGACGG,-0.09
22,TTAGCCACGTGTCGGT,0.12
23,GGAATCACGTGGCTTT,0.13
24,CTAGTCACGTGGTTCG,0.2
25,ACCTTCACGTGTTGTG,0.23
26,AGTGGCACGTGTAGAC,0.11

row,Sequence,relative binding free energy [kcal/mol]
1,ATTACCACGTGGTTAG,0.05
2,ATAGGCACGTGGTGGT,-0.11
3,AATATCACGTGTAATG,0.21
4,CTTTGCACGTGGTTTT,-0.05
5,AGGGTCACGTGTGGTC,0.19
6,AAGTGCACGTGTTTTT,-0.01
7,AGTGGCACGTGTAATT,0.1
8,GTGATCACGTGGGTCA,-0.22
9,GTGGTCACGTGGGGAC,0.09
10,CGTGCCACGTGTAGGT,-0.22
11,GCGTTCACGTGTTAAT,0.3
12,TGGTGCACGTGTTGTC,0.01
13,ACGATCACGTGGTTGG,0
14,TTTGTCACGTGTGGCG,0.2
15,GGATTCACGTGGGTTT,0.23
16,TTTTTCACGTGGAGAC,0.21
17,GCTCGCACGTGTGTTT,-0.07
18,TAGAGCACGTGTGCTG,-0.11
19,TCGCTCACGTGTTTGG,0.19
20,ATAGTCACGTGTGTCT,-0.04
21,TGAAGCACGTGTTTTA,-0.1
22,TTGTTCACGTGTAAAC,0.32
23,TTAGCCACGTGGTCGG,-0.18
24,ATTTGCACGTGCTTTG,0.05
25,TGGCGCACGTGGGTAG,-0.26
26,TTGGGCACGTGTTTTC,0.02

row,Sequence,relative binding free energy [kcal/mol]
1,AGGGTCACGTGTACGA,0.05
2,TAGATCACGTGGGCTA,0.01
3,TGGCACACGTGTATAG,0.21
4,TGTTTCACGTGCTTTG,0.22
5,TTGGGCACGTGATGGT,-0.04
6,TGAGACACGTGTTTAG,0.01
7,GTTTGCACGTGCGGTC,0.04
8,TTGATCACGTGGGTCA,-0.03
9,TCACGCACGTGTGGGG,-0.2
10,GATTTCACGTGTGGTT,0.34
11,TTAGTCACGTGAGTAA,0.14
12,CGTGGCACGTGTTATC,0.09
13,TTGGACACGTGTGACG,0.1
14,TGAGGCACGTGTCAGG,-0.16
15,GGGTTCACGTGTCAGT,0.36
16,TATGACACGTGGTGTG,-0.03
17,GTATGCACGTGGTTAG,-0.14
18,AGTCGCACGTGTGCGT,-0.03
19,AACTGCACGTGGTAGG,-0.03
20,GGAAACACGTGGTTAG,0.03
21,AAAGGCACGTGTAGCT,-0.06
22,GGATTCACGTGGAAGA,0.51
23,GAATGCACGTGGTATA,-0.01
24,GTATTCACGTGAGGGG,0.35
25,TGGGTCACGTGGAACG,0.18
26,GGGGGCACGTGGAGGG,-0.13

row,Sequence,relative binding free energy [kcal/mol]
1,TGCATCACGTGCGGTT,0.16
2,TTGTTCACGTGTACTT,0.24
3,AGTCGCACGTGTTGTT,-0.03
4,GGCGTCACGTGCGGTG,0.05
5,TGATTCACGTGATGCG,0.35
6,TGAGACACGTGGTAGT,-0.13
7,GGGTGCACGTGGTGGC,0.08
8,GTGGTCACGTGAAATG,0.43
9,CATTTCACGTGGTGGT,0.21
10,GGGTGCACGTGAGATA,0.23
11,TATATCACGTGGCTGG,0.03
12,TACTTCACGTGATTGG,0.24
13,TCAGACACGTGGGGCG,-0.02
14,TTCAGCACGTGCGGTG,-0.07
15,TCGGTCACGTGCTGGA,0
16,TGGCGCACGTGGGTTC,-0.31
17,TTTTTCACGTGGAAGA,0.32
18,GAATTCACGTGCGGTG,0.13
19,ATCTACACGTGGGGTG,-0.18
20,TGGGACACGTGTTAGG,0.03
21,TTTGGCACGTGTCGTC,-0.03
22,ATTCGCACGTGGATGG,0.04
